First the molecules themselves.
B1: CPEB3 Ribozyme (parent)
chain: UAACAGGGGGCCACAGCAGAAGCGUUCACGUCGCAGCCCCUGUCAGAUUCUGGUGAAUCUGCGAAUUCUGCUGUAUAUCUC

The values that follow come from the RNAGym collection of RNA variant scans (doi:10.1093/nar/gkz1192).

The source gives no read counts; variants with many changes may rest on few reads.

Variants of B1 are the subject of the data set. Kind of data set: self-cleavage, relative activity (ratio to wild type); higher = more cleavage; in vitro, sequencing. In outline: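 CPEB3 self-cleaving ribozyme mutant libraries were made by rounds of error-prone PCR, barcoded, and transcribed in vitro with T7 RNA polymerase for 5 hours at 37°C. Cleavage occurred during transcription and a 15 min DNase I step before EDTA stop. RNAs were reverse transcribed with template switching and Illumina-sequenced, with DNA sequencing mapping barcodes to variants. Relative activity is the variant's cleaved/total read fraction divided by wild type's (minimum 5 reads), averaged across three batches.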
As for A13G U41A U51A A57G U60A, the self-cleavage turned out to be 0.04.

For A13G A65G U69C U78A U80A, the self-cleavage was determined as 0.11.

As to A13G G46U U60C U69C, the self-cleavage was determined as 0.12.

For A13G U25A U60A A64G U78A, the self-cleavage turned out to be 0.09.

A13G U26C U41C U48C A56U U72C: the self-cleavage was determined as 0.27.

As for A13G C39U U43A A47G A56G U69A, the self-cleavage was 0.06.

With A13G G63U U72C, the self-cleavage worked out at 0.98.

With A13G U25A A75G U76A, the self-cleavage was determined as 0.34.

Regarding A13G C32U C38U U41C A57U U69C, the self-cleavage was 0.08.

In the case of A13G C23G C29U A47U G55C U72G, the self-cleavage turned out to be 0.04.

With A13G U26A A64U U74C, the self-cleavage was found to be 0.1.

Regarding A13G A65G U76C, the self-cleavage was determined as 0.52.

For A13G G16A C59G, the self-cleavage is 0.09.

On to A13G U41A A57G G63A U69C U72C U78C, for which the self-cleavage was 0.07.

A13G U26C U60C A64G U72C: the self-cleavage was 0.09.

For the variant A13G U26C A35G A75U, the self-cleavage stood at 0.57.

On to A13G C39A A45U A47U, for which the self-cleavage came out at 0.29.

Regarding A13G U41A U66G U78C, the self-cleavage came to 0.06.

Take A13G G30A A65U: the self-cleavage amounted to 0.11.

Turning to A13G U31C C38U U67A A77G, the self-cleavage worked out at 0.13.

Take A13G C40A U43C U51C: the self-cleavage was determined as 0.13.

Regarding A13G U41C U72C, the self-cleavage came to 0.84.

For A13G C23G U72C, the self-cleavage was 0.05.

A13G C14A A45G U51C U58C U66C: the self-cleavage was 0.09.

Consider A13G G19U U26C U51A A75G, for which the self-cleavage was found to be 0.19.

A13G G16A A35U U41A U69A: the self-cleavage was found to be 0.04.

Regarding A13G U25C A64U, the self-cleavage was found to be 0.18.

For A13G G19U U41A, the self-cleavage was 0.22.

Consider A13G C38U A45G C79U, for which the self-cleavage was determined as 0.78.

A13G C23G U26A U51A U60A U69A U72C: the self-cleavage worked out at 0.14.

As to A13G U26G C40U, the self-cleavage was 0.08.

In the case of A13G U26C C37A U43C, the self-cleavage worked out at 0.23.

As for A13G U43A U67A, the self-cleavage was found to be 0.33.

As for A13G U25A C34G U60G U69A A75U, the self-cleavage was 0.12.

For the variant A13G C17G A21G U26C U41C U49A G61A, the self-cleavage came to 0.02.

In the case of A13G G33C U49A G53U U72C A75G, the self-cleavage came out at 0.07.

A13G U41A G55U U58C U78A: the self-cleavage was determined as 0.14.

With A13G C14U C23A A45G A77G, the self-cleavage was 0.21.

On to A13G U26G C50U U51C A65G U76C, for which the self-cleavage came out at 0.04.

In the case of A13G U41C U72A U80A, the self-cleavage was found to be 0.84.

Turning to A13G C17U C29U, the self-cleavage was determined as 0.18.

A13G U26A U43A A47C U49G U67C U69C: the self-cleavage was found to be 0.21.

For the variant A13G U25A A35U, the self-cleavage amounted to 0.46.

With A13G U43A U60C U78C, the self-cleavage is 0.61.

In the case of A13G U26A U31C C68G A75G U78C, the self-cleavage worked out at 0.05.

Take A13G C37G A56U U72A U76A: the self-cleavage is 0.12.

As for A13G G42U U67C, the self-cleavage turned out to be 0.09.

Take A13G C50A U51C U54C A64G U74A: the self-cleavage turned out to be 0.25.

A13G U26A A28G U49C A64U U72C: the self-cleavage was found to be 0.04.

With A13G U25C A28G, the self-cleavage was determined as 0.35.

On to A13G U25C A57G U72C U78C, for which the self-cleavage stood at 0.44.

For A13G G33U U48C A75U, the self-cleavage amounted to 0.13.

For the variant A13G C32A U43A A57G U80C, the self-cleavage stood at 0.11.

Turning to A13G C32G A35C A45U U60A G61U, the self-cleavage is 0.06.

As to A13G U25C U72C U78C, the self-cleavage stood at 0.23.

Turning to A13G U25C U41A U60C U76C, the self-cleavage was 0.15.

As to A13G U41A U54C A56G U69C U74A A77G, the self-cleavage was found to be 0.16.

Regarding A13G C38A A56G U72G, the self-cleavage stood at 0.27.

In the case of A13G G16A U26A U66C U74C, the self-cleavage is 0.06.

In the case of A13G C23U C38U U54C U72C, the self-cleavage stood at 0.11.

A13G C29G U41C A57U: the self-cleavage was 0.31.

Consider A13G U41G A45G U54C U72C, for which the self-cleavage turned out to be 0.05.

Turning to A13G U25C U58A U69C U78C, the self-cleavage amounted to 0.05.

Turning to A13G C40G U58C U67C G73A, the self-cleavage worked out at 0.22.

For A13G U25G U43C, the self-cleavage stood at 0.25.

As to A13G G33A U49C U60A, the self-cleavage stood at 0.17.

Consider A13G U26C A35G A45U U60C U72C, for which the self-cleavage came to 0.13.

On to A13G G19C G46U U72C, for which the self-cleavage came out at 0.05.

In the case of A13G C39U A47G A56G A77U U80G, the self-cleavage was determined as 0.28.

As to A13G U25A U49G C50G, the self-cleavage was found to be 0.17.

Turning to A13G G19U A65G, the self-cleavage was 0.23.

Turning to A13G U31A G70U, the self-cleavage amounted to 0.42.

Regarding A13G C29U A45U U54C A57G, the self-cleavage was found to be 0.05.

For the variant A13G G33A U49C U60A G63A U76C, the self-cleavage stood at 0.08.

Consider A13G C14U U72C, for which the self-cleavage was found to be 1.12.

Consider A13G U25C U49C G52U, for which the self-cleavage is 0.21.

Consider A13G U31C U43C, for which the self-cleavage amounted to 0.26.

On to A13G C14A U25C U49A U76A U78C, for which the self-cleavage amounted to 0.23.

As to A13G G19U U26C U54A U72C U80C, the self-cleavage was 0.07.

For the variant A13G U25C U80C, the self-cleavage is 0.59.

For A13G C14U U31C U43C, the self-cleavage stood at 0.19.

As for A13G G33A U49C U60A U80G, the self-cleavage is 0.04.

Turning to A13G U26C A45U U66A U69A, the self-cleavage amounted to 0.14.

As to A13G U25A C59G, the self-cleavage worked out at 0.08.
